# Molecular target: recombinant enolase of S. pneumoniae serotype 2 (ATCC 11733) (Streptococcus pneumoniae serotype 2 (ATCC 11733)) (UniProt Q97QS2)
# Assay: SPR; rEno immobilised by amine coupling on CM5 chip (BIAcore T200), VWF or A domains as analyte, PBS pH 7.4 with 0.05% Tween 20, 25°C, 10 μl/min, 1:1 Langmuir model
# Chain of UniProt Q97QS2 (Q97QS2 whole entry): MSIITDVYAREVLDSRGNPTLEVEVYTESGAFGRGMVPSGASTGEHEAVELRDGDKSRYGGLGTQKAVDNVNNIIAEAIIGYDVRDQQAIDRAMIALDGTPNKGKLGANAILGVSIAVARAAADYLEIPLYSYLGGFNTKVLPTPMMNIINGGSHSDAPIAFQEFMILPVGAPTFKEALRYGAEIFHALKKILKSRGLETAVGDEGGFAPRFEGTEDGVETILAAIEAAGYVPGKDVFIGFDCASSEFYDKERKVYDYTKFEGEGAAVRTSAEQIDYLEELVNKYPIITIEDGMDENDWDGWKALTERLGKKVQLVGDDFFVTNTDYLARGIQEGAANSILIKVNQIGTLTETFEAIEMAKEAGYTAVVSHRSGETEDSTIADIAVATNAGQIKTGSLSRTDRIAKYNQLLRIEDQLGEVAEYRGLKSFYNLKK
substance,measurement,value
"human plasma von Willebrand factor (a stretch of the chain, chain not printed) (natural protein; other documents disagree on this pair)",Kd,5.36 nM

# Reference: paper PMC6443961
